The text below walks through data of PubChem BioAssay AID1159614 (National Center for Advancing Translational Sciences (NCATS), 2016).

The campaign covered roughly 45,000 compounds. About 65 (0.1%) were called active. Calls come from the whole dose curve; as a rule, active = well fitted activation curve with a large enough effect; inconclusive = small, poorly fitted or top-dose-only effect; inactive = no such curve, though single readings can be large or run the other way. Some of the results follow.

Chain of UniProt P54803 (P54803 whole entry, looked up): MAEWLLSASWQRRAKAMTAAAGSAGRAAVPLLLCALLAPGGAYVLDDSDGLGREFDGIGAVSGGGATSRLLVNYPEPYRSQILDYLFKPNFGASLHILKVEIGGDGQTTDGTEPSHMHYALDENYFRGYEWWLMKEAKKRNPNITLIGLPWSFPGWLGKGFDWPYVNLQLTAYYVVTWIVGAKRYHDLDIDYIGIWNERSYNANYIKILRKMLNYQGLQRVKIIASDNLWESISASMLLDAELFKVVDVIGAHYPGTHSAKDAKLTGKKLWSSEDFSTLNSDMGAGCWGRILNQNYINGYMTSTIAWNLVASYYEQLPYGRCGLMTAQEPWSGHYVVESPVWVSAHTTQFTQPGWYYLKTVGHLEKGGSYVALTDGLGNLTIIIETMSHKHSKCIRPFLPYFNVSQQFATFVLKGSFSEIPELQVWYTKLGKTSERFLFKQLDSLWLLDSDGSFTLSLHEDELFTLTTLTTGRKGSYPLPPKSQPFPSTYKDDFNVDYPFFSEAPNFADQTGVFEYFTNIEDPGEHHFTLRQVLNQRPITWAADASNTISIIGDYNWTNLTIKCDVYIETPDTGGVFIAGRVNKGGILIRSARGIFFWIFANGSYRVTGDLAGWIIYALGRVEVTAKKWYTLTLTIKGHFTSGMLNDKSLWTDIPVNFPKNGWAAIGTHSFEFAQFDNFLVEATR

This test addresses Galactocerebrosidase (Homo sapiens) (UniProt P54803). Description: A Novel Cell-Based Assay to Identify Small Molecules for B -Galactocerebrosidase. Note: 0% is about no effect; nearly all actives have a fitted effect of over 65% in size. The settings on record: 145M-Twi-hGALC-G270D cells (Twitcher mouse brain line with human GALC G270D), HMU-beta-Gal fluorescence, 48 h; series mostly up to 57.5 µM; activation: at the top concentration. In outline:
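Mutant human GALC (G270D), stably expressed in a Twitcher mouse brain cell line lacking endogenous GALC, is measured in live-treated cells via 6-hexadecanoylamino-4-methylumbelliferyl-β-galactoside hydrolysis (0.1 mM final, pH 5.2) with fluorescent detection.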
Consider `Cc1ccc(Cl)c2sc(N3CCN(C(=O)C4CC4)CC3)nc12`, for which the “activation” value is inactive: -0.561%.
`COc1cccc(N2CCN(C(=O)C3CCCN(S(=O)(=O)c4ccc(Br)s4)C3)CC2)c1` (configuration not stated): the “activation” value was inactive: -11.3%.
As for `Cc1c(NC(=O)c2nc3ccccc3n(C)c2=O)cccc1[N+](=O)[O-]`, the figure is inactive: -7.16%; as for `Cc1ccccc1CNC(=O)c1c(C)oc2c1C1=NCCN1C=N2`, inactive: -10.7%.
As for `Cc1ccccc1Cn1cc(S(=O)(=O)c2ccc(Cl)cc2)c(=O)c2cc3c(cc21)OCO3`, the figure is inactive: -10.2%; as for `Cc1ccc(Cn2c(=O)n(CCCCC(=O)NCCc3ccc(Cl)cc3)c(=O)c3ccccc32)cc1`, inactive: -7.31%; as for `CCc1nnc2c(Nc3ccc(Br)c(C)c3)nc3ccccc3n12`, inactive: -7.04%.
For the compound `COc1ccc(S(=O)(=O)N2CCN(c3ccc(F)cc3)CC2)cc1-c1noc(C)n1`, the “activation” value was inactive: -17.9%.
Regarding `Cc1cc(C)cc(OCC(=O)NCC(c2ccc(Cl)cc2)N2CCCCC2)c1` (configuration not stated), the “activation” value was inactive: -14.6%.
Take `Cn1c(=O)c2c(n3c4ccccc4nc13)NC(=O)CC2c1ccccc1F` (configuration not stated): the “activation” value is inactive: -30.4%.
Consider `CC1CCc2c(sc3nnn(Cc4ccc(F)cc4)c(=O)c23)C1` (configuration not stated), for which the “activation” value was inactive: -5.62%.
With `COc1ccc(NC(=O)CSc2ncc(-c3ccc(Cl)cc3)[nH]2)cc1OC` the figure was inactive: -8.86%; with `CCc1ccc(NCc2cc3cc4c(cc3n(CC(=O)Nc3ccc(Cl)cc3)c2=O)OCO4)cc1`, inactive: 29.2%; with `COc1ccccc1CCNC(=O)c1ccc2c(c1)c(C)c(C)n2C`, inactive: 1.66%.
As to `CCN(CC)S(=O)(=O)c1ccc2c(c1)N(CC(=O)Nc1c(C)cccc1C)C(=O)CO2`, the “activation” value was inactive: -5.22%.
As for `CCc1ccccc1NC(=O)Cn1nnc(C(=O)OC)c1C(=O)OC`, the figure is inactive: -19.3%.
As to `COc1ccc(OC)c(N(CC(=O)NCc2ccccc2)S(=O)(=O)c2ccccc2)c1`, the “activation” value was inactive: -22.3%.
In the case of `CCOC(=O)c1sc2ccccc2c1S(=O)(=O)Nc1ccc(N(C)C)cc1`, the “activation” value was inactive: -32%.
Regarding `CCOC(=O)c1sc(N2C(=O)c3oc4cc(C)c(C)cc4c(=O)c3C2c2cccc(O)c2)nc1C` (configuration not stated), the “activation” value is inactive: -10.6%.
As for `COC(=O)c1cc(NC(=O)CCc2c(C)nc3c4c(C)cc(C)nc4nn3c2C)cc(C(=O)OC)c1`, the figure is inactive: -13.4%.
Regarding `Cc1cc(S(=O)(=O)Nc2cccc(C(=O)O)c2)c(C)c(S(=O)(=O)c2ccccc2)c1`, the “activation” value is inactive: -2.28%.
As for `COc1ccc(-c2nc(C)c(CCNC(=O)C(=O)Nc3cccc(F)c3)s2)cc1OC`, the “activation” value is inactive: -1.33%.
As for `COc1ccccc1NC(=O)CCCOc1cc(=O)n(C)c2ccccc12`, the “activation” value is inactive: -17.9%.
For the compound `CCc1ccccc1NC(=O)c1cc(S(=O)(=O)N(CC)c2ccccc2)ccc1F`, the “activation” value was inactive: -3.07%.
With `Oc1c(I)cc(I)c2cccnc12` the figure was inactive: -16.1%; with `CC1CCN(c2nc3c(S(=O)(=O)c4ccccc4)nnn3c3ccsc23)CC1`, inactive: 13.2%; with `CCOC(=O)CCn1nc(-c2ccc(C)cc2)c2ccccc2c1=O`, inactive: -11.9%.
